Results published in PMC4336329 (PLoS ONE, 2015).
The campaign covered roughly 310,000 compounds. About 2,200 (0.71%) showed an effect of 50% or more. The effect is printed as a negative number. The list shows a part of the results.

biological target: human ether-à-go-go-related gene (hERG) potassium channel (human, UniProt Q12809); assay: primary screen, population patch clamp on CHO cells stably expressing hERG
Sequence (Q12809 whole entry, looked up): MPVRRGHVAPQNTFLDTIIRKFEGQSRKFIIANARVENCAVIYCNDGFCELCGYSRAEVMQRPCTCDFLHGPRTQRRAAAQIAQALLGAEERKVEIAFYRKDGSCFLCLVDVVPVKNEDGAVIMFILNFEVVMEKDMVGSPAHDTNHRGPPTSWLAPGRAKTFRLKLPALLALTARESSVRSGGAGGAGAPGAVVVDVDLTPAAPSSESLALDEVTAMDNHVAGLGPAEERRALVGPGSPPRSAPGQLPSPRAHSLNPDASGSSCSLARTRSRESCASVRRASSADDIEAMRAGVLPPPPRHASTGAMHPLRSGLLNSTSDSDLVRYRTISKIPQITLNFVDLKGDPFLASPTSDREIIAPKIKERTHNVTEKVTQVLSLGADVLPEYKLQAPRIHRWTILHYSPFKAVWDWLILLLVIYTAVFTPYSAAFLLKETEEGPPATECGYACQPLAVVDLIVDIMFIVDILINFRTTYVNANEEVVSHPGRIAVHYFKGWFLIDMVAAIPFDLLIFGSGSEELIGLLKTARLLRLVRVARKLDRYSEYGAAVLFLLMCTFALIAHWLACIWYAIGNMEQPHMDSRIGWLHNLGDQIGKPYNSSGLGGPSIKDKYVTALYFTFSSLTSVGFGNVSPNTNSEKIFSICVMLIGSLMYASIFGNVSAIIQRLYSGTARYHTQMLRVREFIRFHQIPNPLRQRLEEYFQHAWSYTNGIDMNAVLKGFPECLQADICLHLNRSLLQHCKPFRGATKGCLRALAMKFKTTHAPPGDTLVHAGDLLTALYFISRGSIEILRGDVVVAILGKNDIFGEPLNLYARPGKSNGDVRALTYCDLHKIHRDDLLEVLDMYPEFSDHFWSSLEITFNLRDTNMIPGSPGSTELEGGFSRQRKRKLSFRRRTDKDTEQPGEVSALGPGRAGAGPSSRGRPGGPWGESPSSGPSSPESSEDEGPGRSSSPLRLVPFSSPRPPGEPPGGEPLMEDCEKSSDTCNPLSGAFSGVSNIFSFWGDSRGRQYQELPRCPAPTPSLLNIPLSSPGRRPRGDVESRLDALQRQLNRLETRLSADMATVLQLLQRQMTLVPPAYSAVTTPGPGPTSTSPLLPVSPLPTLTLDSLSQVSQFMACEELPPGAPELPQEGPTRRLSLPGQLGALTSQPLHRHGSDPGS

| SMILES | hERG current change (%, negative = inhibition) at 1uM [%] |
| --- | --- |
| COc1ccc(NS(=O)(=O)c2ccc(C)c(C(=O)NNC(=O)c3csc(N4CCOCC4)n3)c2)cc1 | 6.79 |
| Cc1ccc(C(=O)Nc2ccc3c(c2)C(=O)NC3=O)cc1 | 18.8 |
| CC(C)C[C@H](NC(=O)N1CCn2c1nc1ccccc12)C(=O)NCC1CCCO1 (stereo partly shown) | 16.8 |
| Cc1ccc(C)c2nc(Cl)c(C#N)cc12 | 13 |
| O=[N+]([O-])c1cc(S(=O)(=O)NCCN2CCOCC2)ccc1Cl | 16.2 |
| COc1ccc(NC(=O)Nc2cccc(OC)c2)cc1 | -2.63 |
| Cc1ccc(/C=N/n2c(COc3ccccc3)n[nH]c2=S)s1 | 11.3 |
| COc1ccc(C)cc1Nc1n[n+](-c2ccccc2)c(-c2c(Cl)cccc2Cl)s1.[Cl-] | -4.42 |
| O=C(COc1ccccc1)NCCSCc1ccc(Cl)cc1 | 8.48 |
| COC(=O)c1ccc(CN(C(C)=O)c2ccccc2)o1 | 13.6 |
| Cc1ccc(C(C(=O)NCCc2ccccc2)N(C(=O)c2csnn2)C2CC2)cc1 (stereo not shown) | 7.1 |
| CCOC(=O)C(Cc1ccccc1)NC(=O)CCc1nnc2ccc(N3CCCCC3)nn12 (stereo not shown) | 15.5 |
| CCOC(=O)c1ccc(CC2S/C(=C(\C#N)C(C)=O)NC2=O)cc1 (stereo not shown) | 1.89 |
| COc1cc(C2c3c(-c4cc(Cl)c(C)cc4O)n[nH]c3C(=O)N2Cc2cccnc2)ccc1O (stereo not shown) | 8.71 |
| CCCNc1nc2c(c(=O)[nH]c(=O)n2C)n1CCCc1ccccc1 | 12.9 |
| COC(=O)c1ccc(COC(=O)c2ccc(SC)cc2OC)cc1 | 10.4 |
| COc1ccccc1-c1ccc(=O)n(CC(=O)NCC2CCCO2)n1.Cl (stereo not shown) | 2.84 |
| O=C(Cc1c(F)c(F)c(F)c(F)c1F)OC12CC3CC(C1)C(=O)C(C3)C2 | 6.32 |
| CCc1cc2c(Nc3ccccc3O)nc(C)nc2s1.Cl | 17.2 |
| c1ccc2c(c1)NC(CN1CCOCC1)CO2 (stereo not shown) | 3.87 |

| SMILES | hERG current change (%, negative = inhibition) at 1uM [%] |
| --- | --- |
| CS(=O)(=O)Oc1ccc(/C=C2\C(=N)N3N=C(CC(=O)N4CCOCC4)SC3=NC2=O)cc1Cl | 9.94 |
| OC(CN1CCN(c2cccc(Cl)c2)CC1)c1ccc(F)cc1 (stereo not shown) | -0.326 |
| CCOC(=O)COc1ccc(C(c2c(C)[nH][nH]c2=O)c2c(C)[nH][nH]c2=O)cc1 | 12.5 |
| Cc1ccc2nc(SCC3CCCCO3)[nH]c2c1 (stereo not shown) | -0.485 |
| Clc1cc(CSc2ccccc2)nc(-c2ccccc2)n1 | 2.47 |
| CCC(=O)n1nc(-c2cccnc2)nc1NCc1ccc(OC)cc1 | 7.01 |
| CCOC(=O)C1=C(COc2ccc(F)cc2Cl)NC(=O)NC1c1cc(C)ccc1C (stereo not shown) | 11.4 |
| NC(=O)COC(=O)CSc1cccc2cccc(Cl)c12 | 16.6 |
| Oc1cc(Cc2ccccc2)cnc1CN1CCCCC1 | 10.2 |
| CC(=O)Nc1nnc(-c2ccccn2)o1 | 11.7 |
| Clc1ccc(CSc2ccc(-c3ccccn3)nn2)cc1 | -3.52 |
| CN(CC(=O)NC(=O)NC1CCCCC1)c1ccccc1 | 11.7 |
| O=C(CSc1nnc(NC(=O)c2ccccc2F)s1)NCc1ccco1 | 15.4 |
| COc1ccc(NC(=S)N2CCC(NC(=O)c3ccco3)CC2)cc1 | 14.2 |
| COCCn1c(C)cc(C(=O)CSc2nnc3ccccn23)c1C | 8.95 |
| O=C(Nc1ccccc1)c1ccc[nH]1 | 12.8 |
| O=C(NCCc1ccccc1)c1cc(S(=O)(=O)N2CCOCC2)ccc1F | 7.31 |
| COc1cc(C(=O)NCCOc2ccc(F)cc2)c(Br)c(OC)c1OC | 3.73 |
| CC(Oc1ccccc1)c1ccnc2nc(/N=C/N(C)C)nn12 (stereo not shown) | 14 |
| COC(=O)c1ccc2[nH]ccc2c1 | 1.03 |

| SMILES | hERG current change (%, negative = inhibition) at 1uM [%] |
| --- | --- |
| CCOC(=O)C1CCCN(C(=O)COc2ccc(N(C)S(=O)(=O)c3ccc(C)cc3)cc2)C1 (stereo not shown) | 0.084 |
| COc1ccccc1NC(=S)N1C2CCC1CC(NC(=O)NC13CC4CC(CC(C4)C1)C3)C2 (stereo not shown) | -25.2 |
| Cc1cccc(Oc2ccc(NC(=O)c3ccccc3C(=O)O)cc2)c1 | 6.74 |
| COc1cc2[nH]c(=O)n(Cc3ccc(C(=O)NCCCN4CCC(C)CC4)cc3)c(=O)c2cc1OC | 5 |
| S=C(NCCc1ccccn1)NC1CC2CCC1C2 (stereo not shown) | 14.1 |
| O=C1CCCCC1c1cccc2ccccc12 (stereo not shown) | 4.46 |
| CCC(C(=O)Nc1nccs1)c1ccccc1 (stereo not shown) | 15.2 |
| CCOCCCNC(=O)c1cc(-c2ccc(Br)s2)nc2ccccc12 | 9.96 |
| Cc1ccc[n+](CC(O)Cn2c3ccccc3c3ccccc32)c1.[O-][Cl+3]([O-])([O-])[O-] (stereo not shown) | 10.8 |
| Cn1c(CC(=O)c2ccc(Br)cc2)[n+](C)c2ccccc21.[Cl-] | 5.8 |
| O=C(Cc1cc(=O)[nH][nH]1)N/N=C/c1ccccc1Cl | 11.3 |
| COc1ccccc1S(=O)(=O)Cc1ccc(C(=O)NCc2cccs2)o1 | -15.6 |
| Cc1cccc(NC(=O)COC(=O)CCc2c[nH]c3ccccc23)c1C | -3.73 |
| CN(C)CCCNC(=O)c1ccc(Cl)c(S(=O)(=O)N2CCCCCC2)c1.Cl | -70 |
| COc1ccc(-n2cnnc2SCC(=O)Nc2ccc(C(N)=O)cc2)cc1 | 12.2 |
| Cc1cc(C)cc(N(CC(=O)NC(C)(C)C)C(=O)CCC(=O)Nc2ccccn2)c1 | 7.93 |
| O=C(Cn1c(C(=O)OCCO)cc2ccccc21)c1ccccc1 | 12.3 |
| CCOc1cc(C2C3=C(CC(C)(C)CC3=O)N(CCOC)C3=C2C(=O)CC(C)(C)C3)ccc1OC | 6.13 |
